# In PubChem BioAssay AID1347417 (National Center for Advancing Translational Sciences (NCATS), 2020):
# In all, about 120,000 compounds went through this assay and about 5,300 (4.4%) were called active. The shares of active, inactive and inconclusive entries below differ from those in the screen. The call rests on the fitted dose curve; in most records, active means well fitted inhibition curve with a large enough effect; inconclusive means small, poorly fitted or top-dose-only effect; inactive means no such curve, though single readings can be large or run the other way. Where the call is inconclusive, the potency comes from a doubtful curve fit.
# Assay: qHTS Primary assay for Inhibitors of Plasmodium falciparum Dd2 growth in vitro; further: nearly all actives have a fitted effect of over 65% in size;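 on activity, negative = inhibition: plate controls were DMSO vehicle for no effect and reference drug for full effect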
# Conditions: P. falciparum Dd2 growth, SYBR Green, 72 h; activity, negative = inhibition: at 28.9 µM (top of the series) unless noted; series mostly up to 28.9 µM
# In short: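 Infected erythrocytes (Dd2, 0.3% parasitemia, 2.5% hematocrit final) are added to compound in RPMI-1640/Albumax II medium, grown 72 h at 37C in low oxygen, then lysed with saponin/Triton-X containing SYBR Green and read by fluorescence.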
# Potency means the concentration at half of the fitted maximal effect; tags describe the fitted curve by direction and shape.
SMILES,Potency,"activity, negative = inhibition",outcome
Cc1ccc(C)c(Cn2c(SCC(=O)N(C)Cc3ccccc3)nc3ccccc32)c1,"inconclusive: 17.8 µM [inhibitor, single point]",,
CN(C(=O)CSc1nc2ccc(NC(=O)CCc3ccccc3)cc2s1)c1ccccc1,"inconclusive: 1.26 µM [inhibitor, full curve]",,
CCOc1ccc(-c2cc(C(=O)N3CCN(c4cccc(C)c4)C(C)C3)c3ccccc3n2)cc1 (configuration not stated),,inactive: -28.6%,
CCc1ccccc1NC(=O)C(=O)NCC(c1cccnc1)N1CCc2ccccc21 (configuration not stated),"inconclusive: 17.8 µM [inhibitor, single point]",,
Cc1ccc(-c2nnc(Nc3ccc(S(N)(=O)=O)cc3)c3ccccc23)cc1S(=O)(=O)N1CCOCC1,"inconclusive: 14.1 µM [inhibitor, single point]",,
COC(=O)c1cccc(NC(=S)N[C@H]2CO[C@H]3[C@@H]2OC[C@@H]3n2nnnc2-c2cccc(OC)c2)c1,,inactive: -25.6%,
COc1ccc(C(=O)N2CCC(n3cc(-c4nc(C(C)C)no4)nn3)CC2)cc1,,,inactive
Cc1ccc(NC(=O)Cn2cccc2-c2nc(-c3ccccc3)no2)c(C)c1,"inconclusive: 0.316 µM [inhibitor, full curve, poor fit]",,
Cc1noc(Cn2c(=O)c3ccccc3n(CC(=O)Nc3ccc(Cl)cc3)c2=O)n1,"inconclusive: 10 µM [inhibitor, single point]",,
Cc1ccc(CN2C(=O)NC3(CCCN(C(=O)c4cc5ccccc5[nH]4)C3)C2=O)cc1 (configuration not stated),"inconclusive: 1 µM [inhibitor, full curve, poor fit]",,
CC(=O)Nc1ccc(CN2CC(Oc3ccc(F)c(F)c3)C2)cc1,"inconclusive: 8.91 µM [inhibitor, partial curve, poor fit]",,
CNC(=O)CCn1ncc2cc(OC3CCc4cccc(-c5ccc(F)cc5)c43)ccc21 (configuration not stated),active: 14.1 µM,,
COc1cccc(-n2c(-c3ccco3)nc3c(cnn3-c3ccc(C)cc3)c2=O)c1,"inconclusive: 10 µM [inhibitor, single point]",,
CCN1c2ccccc2-c2nc(SCC(=O)Nc3c(C)cc(C)cc3C)ncc2S1(=O)=O,"inconclusive: 12.6 µM [inhibitor, single point]",,
Cc1ccc(C)c(C(=O)NC2CCCN(c3cc(-c4ccccc4)[nH]n3)C2)c1 (configuration not stated),,inactive: -29.4%,
CCOc1ccc(C(=O)c2cn(Cc3ccc(OC)cc3)c3cc(OC)c(OC)cc3c2=O)cc1,active: 10 µM,,
CCOc1ccc(NS(=O)(=O)c2ccc3[nH]cc(C(=O)NC4CCCC4)c(=O)c3c2)cc1,"inconclusive: 17.8 µM [inhibitor, partial curve, poor fit]",,
